Results published in the supplement of paper PMC10126150.
Values marked as one replicate rest on one cluster of the flow cell; about a third of the high ones do not repeat.

Tested on: ATP
Test: switch fluorescence ratio, 500 uM ATP over buffer (Cy3 cluster intensity, sum of 5 cycles each) (fold (ratio)); higher = stronger signal-on switching upon ATP binding; sequences stand for … in TCGTCGGCAGCGTCAGATGTGTATAAGAGACAGTTTTTTTTTTTTTTTTTTTTTTTTT…TC
Conditions: aptamer strand: ATP DNA aptamer (quencher-CACCTGGGGGAGTATTGCGGAGGAAGG + anchor), 100 nM annealed; ATP concentration: 500 uM; one replicate
Procedure, shortened: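 Five buffer/ATP imaging cycles were run on Cy3-labelled switching-strand clusters on a modified Illumina MiSeq flow-cell, with NaOH stripping and re-annealing between cycles. In each cycle, clusters annealed to 100 nM quencher-labelled ATP aptamer were imaged in selection buffer, then after 15 min with 500 uM ATP at 22 °C. Per cluster, the fluorescence ratio is summed target-cycle over summed buffer-cycle Cy3 intensity, averaged per switch-domain sequence. Only clusters within 100-1000 RFU were kept.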
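Further: ATP exposure 15 min at 22 °C before imaging.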

Sequence	switch fluorescence ratio
TGGCTTAGAG	0.962
ACTGTTCGCG	1.03
GGCCTGCCTT	0.997
TCGCGCGCAG	1.05
TGAATAGTTA	0.987
TCTCAGTAAA	0.997
GATATCCGCG	1.31
GAATGAGGGG	0.996
TGGTGTTGTT	1.01
CTCAAAGTAG	1.18
AGAGTAGCTC	1.05
TTCGATTTCT	1.05
AACCCCGATG	1.38
GGTGCACTCA	1.01
TGTACCAG	1.05
TGATCTAGGA	1.06
GTCTGGAACA	1.04
TACGTGGTCA	0.958
ACTGGACCAT	1.09
GATTATGAG	1
GATTATGGAC	1.03
CATTGGGCAT	1.04
TGGCTATAAT	1.06
GTGTTTATAC	1.04
CGTCGCTATT	1.29
GCGTTGATTT	0.993

Sequence	switch fluorescence ratio
TGAGTGATAG	1.09
CGAGTCAGTC	1.08
CCTACATATC	1.56
AGCAACGAGT	0.983
CTGAGACGCC	1.02
ACCTCACTTA	1.25
ACTTGACTTA	1.13
CCAGAATCTC	1.01
GCATGGGCGG	0.993
TGTGATTCA	0.964
GTGTGACATG	0.992
GGTCGGGCGG	1
TCGGTTAAGA	1.02
TTCTTTATAA	0.957
TACAGGGTAC	1.08
TATAATAAAA	1.02
CTACATCCGA	1.12
GGTTGATGGT	1
GGTTATTC	0.985
ACCTGGGTCA	1.03
GGTGTTC	0.98
AAGTAATAGC	1.1
GACAGTGATG	0.888
GCAGATCGCG	1.01
GTCGTTCAAT	0.968
GCGCATTTAA	1.08

Sequence	switch fluorescence ratio
TCTTGAGTTC	0.991
TTATTCTAGT	1
CATGATATTG	0.961
GACGACGAAT	4.03
GCGTACCGCT	1.04
GCAGCACCCC	2.42
ACTCTGACTA	1.1
TTCGGGCGCA	1.09
GTGAAATGG	0.999
ACTGGTCGTG	0.981
TCCCAGTCGT	1.01
GTCTCCCCGC	1.52
CGTCAACCAT	1.01
GCAAGAAGGA	1.02
TAAGGGGA	1.32
CTAGCGTACT	1.29
TAGTCATATG	0.988
ACATAAGGAC	1.01
CAATTCTTGG	1.03
TGGGTATCAC	0.999
CGAATATCCG	0.98
CCATAACGTG	0.969
ATGCTGGG	1.1
CAGCAATCGC	3.22
TGACACTCTA	1.13
GGCAAACTTG	1.02

Sequence	switch fluorescence ratio
CGGATAGAAG	0.994
AAATCGCGCT	1.01
TCTCATCGCG	1.04
TCGTTCCCGG	1.2
AAATCATCTT	1.02
ATTTCCGGAG	3.1
CCGTTGTAGG	1.04
GGCCAGAGAA	1.03
TTGATAGCAG	1.01
ATTATGCCGC	1.19
TAACATTGGA	1.04
AGCCCGCGGA	1
CCATGTGTA	0.975
GGCGGGAGTT	1.02
GGCAGTTAT	0.999
AATAGGATTA	0.986
GCTGTTAGC	0.986
CGGAGTGCAG	1.09
CCATTGTGAG	1.01
AAATACGTCA	1.14
ATATACGTTA	1.16
CAGGTCCCGG	0.997
TCGATTCGAG	1.01
GCCGTGTCGA	1.01
CCGTGAGATC	0.998
GCATGTCCGG	0.999

Sequence	switch fluorescence ratio
GCTCATACCA	1.03
CTGGTTACGT	0.993
AGGTTACAAA	1.03
GGGGTACAC	0.971
ATGCTAAAGG	0.981
GACGTTTAGG	1.02
CAGGCTAACT	1.04
TGTTGATATA	0.998
ATCGATGCTA	1.03
TTAAGTATTC	0.988
CCTACGGGCT	1.44
CCTTGGGCCC	0.986
GCCGAAACGC	1.06
AGCGAGACAT	1.11
TAAGAGAGAG	0.99
AAGCACAAAA	1.48
GTGCGTATGG	1.03
TTTGAGCCTT	1
CTAATTGGTG	1.01
CTGAATTTGT	0.934
CGCGCTCATC	1.19
AAAAGAGTC	0.987
TAAGGGGTA	0.996
CGAGCCACCG	1.02
TCTCGACGAT	1.07
CGGCGCGATT	2.08

Sequence	switch fluorescence ratio
ATTGTGTGTG	1.02
GAAACTCCTT	1.01
TTCTATACGA	1.06
GCGCGGTGTA	1.01
GACATTGATA	1.02
GGGATTGATT	0.958
GGACTATTAT	1.04
GCAGCATTGT	1.15
CCAGAAACTC	1.03
GCTAGAGCGA	1.05
GGGTAGAGC	1.08
ATATATTTGA	1.03
ATGTTAGCGG	1.03
TCATAGGCTT	1.03
TTCGGTCATG	0.987
ATATACCCGA	0.989
AAAAGAATTA	1.03
TATGCGCGTT	0.964
CATGACAGTG	1.01
GGACGGAGTG	0.952
ATGTACAATC	1.14
CTAGATGCTG	1.2
TATTATGTTG	0.998
TGGGGTTCCG	1.01
ACTAGGGGCG	1.03
CAACACTTAT	1.03

Sequence	switch fluorescence ratio
TGTTAGGAGC	1.04
TGCCGTAAAA	1.02
AACATCTGCT	1.04
CAAGACACCT	1.29
TTACCCCGGA	1.05
AGCTGCAGGC	1.02
ACGTCCGAT	1.05
ATTACAAACT	1.15
AGAGTATTAC	1.02
TGTTTAATAG	0.976
GCCCCCATTA	0.997
ATAAACATGT	0.973
GCATGTGTCA	1.03
GATAGTCCAT	1.03
TGTCAGTG	1.04
GAATAAAGAT	0.989
CCGAGAAGTC	1.44
ACTGTCCAGA	1.03
TTTCCCACTT	1.09
GATTATGATA	0.985
TCCTTTTGTA	0.976
CTATGCACCC	1.21
TGGTTGCGGT	1.03
CAAATTGACT	1.04
CCGTTGGCGA	1.78
GCTTGAATGA	1.03

Sequence	switch fluorescence ratio
AAGGTCAGCA	1.02
TAGTCATGTT	0.98
AACGGTAGGG	1.03
CCGACTCATG	1.58
AAGATCCTAT	0.95
ATGGCTCGAC	1.05
GCAATGCATT	1
AAGTATTTGT	0.989
GTGTTGAAAT	1.02
CCCGTAAGTT	1.1
TATTTCCAAG	0.976
CAATATACTA	1.03
GATAGTTATC	0.98
TTAGACTGCG	0.999
CTAGTATAGG	1.03
CCGGGTGAAC	1.5
GCGGTTTCCA	1.01
CTAGACAGCC	1.06
ATATAGACGT	1.03
